According to PubChem BioAssay AID588855 (National Center for Advancing Translational Sciences (NCATS), 2011):
Several values for one entry are separate records, joined by “and”; a condition that tells them apart may be missing. Identical values can stand only once. The whole screen tested about 410,000 compounds, of which about 5,000 (1.2%) were called active. This list was built around the results that the source calls inconclusive (neither active nor inactive); the mix of calls is not that of the screen. The call rests on the fitted dose curve; in most records, active means well fitted inhibition curve with a large enough effect; inconclusive means small, poorly fitted or top-dose-only effect; inactive means no such curve, though single readings can be large or run the other way. Potencies of inconclusive entries are doubtful fits and often do not repeat.

Experiment: qHTS for Inhibitors of TGF-b; further: nearly all actives have a fitted effect of over 65% in size
Details: HepG2 CAGA-GFP TGF-b/SMAD3 reporter, GFP fluorescence, 18 h, TGF-beta stimulated, 500 pg/mL final; series mostly up to 46.1 µM; activity, negative = inhibition: at the top concentration
Method in brief: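 HEPG2 CAGA-GFP reporter cells (1000/well, DMEM with 1% FBS) received compounds, then recombinant TGF-beta at 500 pg/mL final for 18 hours at 37 degrees C. Per-cell GFP summed per well was normalised to unstimulated and stimulated DMSO controls before curve fitting.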
On the % scale 0 is the no-effect control and ±100 the full control effect; potency means the concentration at half of the fitted maximal effect; tags describe the fitted curve by direction and shape.

Structure (SMILES)	Potency	activity, negative = inhibition
CCC1(C)CC(CCNS(=O)(=O)c2ccc(C)cc2)(c2ccc(C)cc2)CCO1 (stereo not drawn)	inconclusive: 28.2 µM [inhibitor, single point]	–
O=c1ccsn1Cc1ccccc1	inconclusive: 35.5 µM [inhibitor, single point]	–
O=C(N[C@@H]1C/C=C\C[C@@H](CC(=O)N(CCO)Cc2ccccc2)C(=O)N[C@@H](c2ccccc2)COC1=O)OCC1c2ccccc2-c2ccccc21	inconclusive: 35.5 µM [inhibitor, single point]	–
Oc1ccc(C[C@H]2CNC(=S)N2C[C@H]2CCCN2C[C@H](Cc2ccccc2)N2C[C@H](Cc3ccc(O)cc3)N(CC3CCCCCC3)C2=S)cc1	active: 7.08 µM	–
CCCC(=O)Nc1cccc(-c2cn3cccnc3n2)c1	inconclusive: 5.62 µM [inhibitor, single point]	–
CCOC(=O)c1ccc(NS(=O)(=O)c2ccc3c(c2)OCCO3)cc1	inconclusive: 15.8 µM [inhibitor, single point]	–
O=C(NCCCCNC(=O)c1ccccc1Br)c1ccccc1Br	–	inactive: 20.4%
Cn1nc(C(=O)NCc2ccc(F)cc2)cc1C(=O)NCc1ccc(F)cc1	inconclusive: 35.5 µM [inhibitor, single point]	–
Cc1nnc(SCC(=O)Nc2sc3c(c2C#N)CCCC3)[nH]c1=O	inconclusive: 35.5 µM [inhibitor, single point]	–
CCOC(=O)C1=CN(Cc2cccc(F)c2)S(=O)(=O)NC1c1ccc(F)c(Cl)c1 (stereo not drawn)	active: 15.8 µM	–
COCC(C)N=C1NN=C(c2cc(C)n(Cc3ccccc3Cl)c2C)CS1 (stereo not drawn)	inconclusive: 35.5 µM [inhibitor, single point]	–
COc1ccc(Cl)cc1Nc1cc(C)nc2nc(-c3ccccc3C)nn12	–	inactive: -2.05%
O=C(O)c1ccccc1C(=O)c1cccc2ccccc12	inconclusive: 5.62 µM [inhibitor, single point]	–
CCc1ccc(Cn2ncc3c(C(=O)O)cc(C)nc32)cc1	–	inactive: -0.993%
CCCSc1nc(-c2ccc(OC)cc2)cc(-c2ccccc2OC)c1C#N	inconclusive: 5.62 µM [inhibitor, single point]	–
Cc1cccc(C)c1NC(=O)CN(Cc1ccc(Br)cc1)S(=O)(=O)c1ccccc1	inconclusive: 35.5 µM [inhibitor, single point]	–
CC1Sc2ccc(S(=O)(=O)N3CCC(C(=O)NCc4ccco4)CC3)cc2NC1=O (stereo not drawn)	–	inactive: -28.2%
O=C1OC(c2ccccc2)(c2ccc(O)cc2)c2ccccc21 (stereo not drawn)	–	inactive: -10.5%
Cc1cc(OC(F)F)ccc1NC(=O)Nc1ccc([N+](=O)[O-])cc1	inconclusive: 35.5 µM [inhibitor, single point]	–
Cc1ccc(NC(=O)N2CCCC2C(=O)NCc2ccc3c(c2)OCO3)cc1 (stereo not drawn)	inconclusive: 0.631 µM [inhibitor, partial curve, poor fit]	–
Cc1nn(-c2ccccc2)c(Cl)c1C(=O)Nc1ccc(N2CCOCC2)cc1	inconclusive: 0.562 µM [inhibitor, full curve]	–

Structure (SMILES)	Potency	activity, negative = inhibition
COc1ccc(NC(=O)N2CCN(S(=O)(=O)c3ccc4c(ccn4C)c3)CC2)cc1OC	inconclusive: 22.4 µM [inhibitor, single point]	–
COc1cccc(/C=N/NC(=O)C(c2ccncc2)N2CCOCC2)c1 (stereo not drawn)	–	inactive: 0%
O=c1oc2ccccc2cc1-c1csc(NN=C2CCCCC2)n1	inconclusive: 28.2 µM [inhibitor, single point]	–
N#Cc1nc(COc2ccc(F)cc2)oc1N1CCN(Cc2ccccc2)CC1	inconclusive: 14.1 µM [inhibitor, single point]	–
CCC1CN(C(=O)NCc2ccccc2)c2cc(C)ccc2O1 (stereo not drawn)	inconclusive: 3.16 µM [inhibitor, full curve, poor fit] and inconclusive: 35.5 µM [inhibitor, single point]	–
CN1/C(=C\C(=O)CSc2nnc(NCc3ccccc3)s2)C(C)(C)c2ccccc21	inconclusive: 35.5 µM [inhibitor, single point]	–
CCC(C)(C)n1nnnc1C(c1cc2ccc(OC)cc2[nH]c1=O)N1CCN(C2CCCCC2)CC1 (stereo not drawn)	inconclusive: 35.5 µM [inhibitor, partial curve, poor fit]	–
CCOC(=O)C1(C)CCN1C(=O)c1ccc(N(C)C)cc1 (stereo not drawn)	–	inactive: 0.314%
COc1ccc(-c2noc(N3CCC(C(=O)Nc4ccc(OC)c(OC)c4)CC3)n2)cc1	inconclusive: 6.31 µM [inhibitor, full curve]	–
Cc1ccccc1NC(=S)NCCc1c[nH]c2ccccc12	inconclusive: 31.6 µM [inhibitor, partial curve, poor fit]	–
CCNC(=O)/C(C#N)=C/c1c(N(Cc2ccccc2)Cc2ccccc2)nc2ccccn2c1=O	inconclusive: 35.5 µM [inhibitor, single point]	–
CCn1cc(C(=O)O)c(=O)c2cc(F)c(N3CCN(S(=O)(=O)c4ccc5c(c4)OCCO5)CC3)cc21	inconclusive: 10 µM [inhibitor, partial curve]	–
COC(=O)C1=C(C)N(Cc2ccccc2)C(=NCCc2c[nH]c3ccccc23)N[C@H]1c1cccc(C(F)(F)F)c1	inconclusive: 10 µM [inhibitor, partial curve, poor fit]	–
CC(C(=O)c1ccccc1)[n+]1cccc(Br)c1 (stereo not drawn)	inactive	–
Cc1ccc(-n2ncc(C(=O)NCc3ccccn3)c2C2CCN(C(=O)OC(C)(C)C)CC2)c(C)c1	inconclusive: 2.82 µM [inhibitor, full curve, poor fit]	–
CN(C)CCCNC(=O)C[C@H]1C[C@H](C(=O)N2CCOCC2)[C@@]2(CCC3CCCC3)c3[nH]c4cc(-c5ccco5)ccc4c3CCN2C1=O	inconclusive: 14.1 µM [inhibitor, partial curve, poor fit]	–
CN(Cc1ccc(Cl)cc1)C(CCc1ccccc1)C(=O)NC1CCCCC1 (stereo not drawn)	inconclusive: 12.6 µM [inhibitor, partial curve, poor fit]	–
COc1cc(N)c(Cl)cc1C(=O)OC(C)C(=O)Nc1cccc(S(=O)(=O)N2CCOCC2)c1 (stereo not drawn)	inconclusive: 3.55 µM [inhibitor, partial curve, poor fit]	–
Cc1ccccc1Cn1nnc2c(=O)[nH]c(C3CCN(C(=O)c4ccccc4Cl)CC3)nc21	inconclusive: 17.8 µM [inhibitor, single point]	–
Cc1ccc2occ(CC(=O)Nc3ccc(S(=O)(=O)N4CCCC(C)C4)cc3)c2c1 (stereo not drawn)	inconclusive: 12.6 µM [inhibitor, partial curve, poor fit]	–
CC(C)(c1cc(Br)c(O)c(Br)c1)c1cc(Br)c(O)c(Br)c1	inconclusive: 35.5 µM [inhibitor, single point]	–

Structure (SMILES)	Potency	activity, negative = inhibition
O=C(OCn1ncc(Cl)c(Cl)c1=O)c1ccc(C(F)(F)F)cc1	–	inactive: -12.5%
CCOC(=O)c1ccc(-c2nnc(-c3ccc(Cl)cc3Cl)o2)cc1	inconclusive: 35.5 µM [inhibitor, single point]	–
CC1(C)C[C@H](O)[C@]2(CO)CC[C@]3(C)C(=CCC4[C@@]5(C)CC[C@H](O)C(C)(C)C5CC[C@]43C)[C@@H]2C1 (stereo partly drawn)	–	inactive: -3.49%
COC(=O)CSc1nnc(-c2c[nH]c3ccccc23)o1	inconclusive: 15.8 µM [inhibitor, single point]	–
CC(=O)c1c(C)[nH]c(C(=O)CSc2nnc(-c3ccco3)o2)c1C	–	inactive: -18.2%
COc1ccc(CN=C2Nc3ccccc3CS2)cc1	inconclusive: 17.8 µM [inhibitor, single point]	–
CC(=O)c1cc(NC(=O)c2ccccc2)c(=O)oc1C	inconclusive: 35.5 µM [inhibitor, single point]	–
COc1ccc2oc(=O)c(C(=O)Nc3cccc(C(=O)O)c3)cc2c1	–	inactive: 36.1%
Cc1cccc(N2C(=O)C(Cc3ccccc3)NC2=S)c1 (stereo not drawn)	–	inactive: -2.33%
COc1cc(NC(=O)COC(=O)/C=C/c2ccc(Cl)cc2Cl)cc(OC)c1	inconclusive: 0.1 µM [inhibitor, full curve, poor fit]	–
COc1ccc(-c2nc(CS(=O)(=O)CC(=O)NCCc3cc(OC)ccc3OC)c(C)o2)cc1	–	inactive: -1.18%
CCCCOC(=O)c1ccc(NC(=O)CC2NCCNC2=O)cc1 (stereo not drawn)	–	inactive: 0%
CCNC(=S)NN=C1c2ccccc2-c2ccccc21	inconclusive: 5.62 µM [inhibitor, single point]	–
Cc1ccccc1NC(=O)CN1CCN(c2ccc(F)cc2)CC1	–	inactive: -8.59%
CCOC(=O)c1sc(NC(=O)c2ccc(S(=O)(=O)N3CCCCC3)cc2)nc1-c1ccccc1	–	inactive: -28.6%
CC(C)(C)CN1CCC(Oc2cccc(C(=O)N3CCNC(=O)C3(C)C)c2)CC1	–	inactive: 0.861%
CN(C(=O)c1cccc(NC(=O)Cc2ccc(NC(=O)C3CCCN(S(=O)(=O)c4cccc([N+](=O)[O-])c4)C3)cc2)c1)C1CCCC1 (stereo not drawn)	inconclusive: 8.91 µM [inhibitor, partial curve, poor fit]	–
Cc1cccc(NC(=O)c2ccc(S(=O)(=O)N3CCOCC3)cc2)c1C	inconclusive: 2.82 µM [inhibitor, single point]	–
CCOC(=O)Cc1ccc(NC(=O)Nc2cc3c(cc2N2CCCCC2)n(C)c(=O)n3C)cc1	inconclusive: 0.891 µM [inhibitor, full curve, poor fit]	–
COc1ccc(CN2c3c(Br)cccc3C(=O)CS2(=O)=O)cc1	inconclusive: 11.2 µM [inhibitor, partial curve, poor fit]	–
CN1CCN(C2=C(Cl)C(=O)C(c3cnc(N4CCCCC4)s3)=C(Cl)C2=O)CC1	inconclusive: 25.1 µM [inhibitor, single point]	–
